Experimental data taken from the BET-seq Pho4 binding data (Le et al. 2018).
This is one part of the list. Values were computed here from the reads of four pooled replicates and scatter widely.

target: T1, Pho4 (S. cerevisiae) (UniProt P07270); experiment: relative binding free energy (BET-seq); higher = weaker binding; conditions: reference: library average
T1 sequence: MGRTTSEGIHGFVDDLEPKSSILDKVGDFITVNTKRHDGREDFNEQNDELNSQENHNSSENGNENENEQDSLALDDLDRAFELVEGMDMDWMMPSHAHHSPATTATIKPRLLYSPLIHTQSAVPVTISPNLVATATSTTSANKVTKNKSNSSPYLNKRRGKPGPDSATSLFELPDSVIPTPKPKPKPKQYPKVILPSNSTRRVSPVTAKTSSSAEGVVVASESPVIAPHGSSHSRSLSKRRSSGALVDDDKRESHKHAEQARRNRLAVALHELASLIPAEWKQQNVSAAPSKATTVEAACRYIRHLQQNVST

Row | Sequence | relative binding free energy
1 | AGTGTCACGTGTGCAA | -0.02 kcal/mol
2 | ATTTACACGTGAGCGG | 0.13 kcal/mol
3 | AGAATCACGTGAGGAT | 0.44 kcal/mol
4 | GGGTGCACGTGGATGG | 0.05 kcal/mol
5 | TCATGCACGTGGTTGA | -0.07 kcal/mol
6 | GTTAACACGTGATGGC | 0.19 kcal/mol
7 | TGCGGCACGTGAAGTA | 0.15 kcal/mol
8 | CGAGGCACGTGATGTT | -0.03 kcal/mol
9 | AGTGTCACGTGGATCT | 0.05 kcal/mol
10 | TATTTCACGTGTCAGT | 0.29 kcal/mol
11 | GTTATCACGTGCATGG | 0.16 kcal/mol
12 | GTTAGCACGTGGCGGC | -0.11 kcal/mol
13 | TAGTTCACGTGGAAGC | 0.48 kcal/mol
14 | GATAACACGTGGGTAA | 0.05 kcal/mol
15 | GTTTGCACGTGTTTTA | 0.08 kcal/mol
16 | ATGCGCACGTGGGGCT | -0.24 kcal/mol
17 | TTGTTCACGTGGGTTA | 0.1 kcal/mol
18 | AGGTGCACGTGCCGGG | -0.18 kcal/mol
19 | TGGTTCACGTGGGATA | 0.18 kcal/mol
20 | TGTATCACGTGTTGAT | 0.14 kcal/mol
21 | GGACGCACGTGGGGAG | -0.14 kcal/mol
22 | TAACTCACGTGTTATG | 0.26 kcal/mol
23 | TTTGTCACGTGATACT | 0.17 kcal/mol

Row | Sequence | relative binding free energy
24 | TCAAGCACGTGTGTAG | -0.11 kcal/mol
25 | GAGTTCACGTGTTAGG | 0.39 kcal/mol
26 | GAGTTCACGTGATTAT | 0.38 kcal/mol
27 | CGCTTCACGTGGTGAG | 0.16 kcal/mol
28 | TACTACACGTGTGGGG | 0.14 kcal/mol
29 | ATCCTCACGTGTTGTG | 0.18 kcal/mol
30 | AATATCACGTGGGCTG | 0.05 kcal/mol
31 | GGTTCCACGTGGCAGT | 0.14 kcal/mol
32 | GTGTTCACGTGGGATT | 0.21 kcal/mol
33 | TTGTACACGTGTAGTA | -0.08 kcal/mol
34 | GTTCGCACGTGGGGGT | -0.21 kcal/mol
35 | GTGAGCACGTGGGAAG | -0.08 kcal/mol
36 | TTTCGCACGTGGGCTA | -0.14 kcal/mol
37 | TTTCACACGTGGTTGT | 0.17 kcal/mol
38 | TTTGGCACGTGGATCT | -0.18 kcal/mol
39 | GTTAGCACGTGGTGCG | -0.03 kcal/mol
40 | GGAGGCACGTGAATTG | 0.15 kcal/mol
41 | TCTGGCACGTGGGGTG | -0.26 kcal/mol
42 | TTGTACACGTGGTTGG | 0.07 kcal/mol
43 | TAAAACACGTGGGTAG | -0.22 kcal/mol
44 | TGGGACACGTGGTGCT | 0.04 kcal/mol
45 | GGGACCACGTGGTGGA | -0.18 kcal/mol
46 | TTAAACACGTGTATAG | 0.03 kcal/mol

Row | Sequence | relative binding free energy
47 | GGTCTCACGTGGGGTA | 0.11 kcal/mol
48 | GTCCTCACGTGGTAGT | 0.3 kcal/mol
49 | TGAGGCACGTGGAGGG | -0.08 kcal/mol
50 | GTGTACACGTGGTTAT | 0.12 kcal/mol
51 | TTGTGCACGTGAGAAG | 0.34 kcal/mol
52 | CTCGGCACGTGTGTGT | -0.19 kcal/mol
53 | CGGGGCACGTGGTGTT | -0.16 kcal/mol
54 | CCAGTCACGTGTGTTT | 0.24 kcal/mol
55 | CTAGGCACGTGAGGAT | 0.2 kcal/mol
56 | AGGTTCACGTGTTTTT | 0.26 kcal/mol
57 | CATTGCACGTGTGGGC | 0.21 kcal/mol
58 | GGTAACACGTGCAGTG | -0.04 kcal/mol
59 | GTTTACACGTGTATTA | 0.15 kcal/mol
60 | ACGCTCACGTGGTGTG | 0.04 kcal/mol
61 | TTGTGCACGTGGACGG | -0.01 kcal/mol
62 | TTAAGCACGTGCAATT | 0.14 kcal/mol
63 | CTTGGCACGTGAGTTA | 0.11 kcal/mol
64 | GGTAACACGTGGAATG | 0.16 kcal/mol
65 | GCGATCACGTGGTTTG | 0.22 kcal/mol
66 | GTTTTCACGTGTGTAT | 0.35 kcal/mol
67 | AATATCACGTGCAGGT | 0.08 kcal/mol
68 | TACATCACGTGGTGGG | 0.12 kcal/mol
69 | TTATGCACGTGTGTCC | 0.12 kcal/mol

Row | Sequence | relative binding free energy
70 | TAGAGCACGTGATGTT | 0.01 kcal/mol
71 | TTCCGCACGTGGTGGG | -0.18 kcal/mol
72 | TTCGGCACGTGTTTTG | -0.03 kcal/mol
73 | TGGAGCACGTGAAGGC | 0.29 kcal/mol
74 | GTAGTCACGTGATGGA | 0.32 kcal/mol
75 | ATAGGCACGTGCGAGT | -0.19 kcal/mol
76 | GTTTACACGTGACAGG | 0.3 kcal/mol
77 | GTTGTCACGTGAAGAA | 0.36 kcal/mol
78 | TCGGACACGTGAGGCG | 0.32 kcal/mol
79 | TTTTTCACGTGAATAG | 0.4 kcal/mol
80 | ATAAGCACGTGGTGGG | -0.13 kcal/mol
81 | CGGGTCACGTGGCAGG | -0.02 kcal/mol
82 | AGGATCACGTGGTGGC | 0.12 kcal/mol
83 | TGAAGCACGTGTAAGG | 0.02 kcal/mol
84 | GTGGGCACGTGAATTA | 0.22 kcal/mol
85 | GTGGTCACGTGTAGTC | 0.17 kcal/mol
86 | AGTTCCACGTGATTGT | 0.17 kcal/mol
87 | TGTTACACGTGCTGTT | 0.02 kcal/mol
88 | TAGGTCACGTGCATAT | 0.1 kcal/mol
89 | GCGTTCACGTGCTGTG | 0.38 kcal/mol
90 | GGGGACACGTGGATGA | 0.13 kcal/mol
91 | ATATGCACGTGCGGAA | -0.06 kcal/mol
92 | GGGGGCACGTGATAAG | 0.1 kcal/mol

Row | Sequence | relative binding free energy
93 | TGACACACGTGATTTT | 0.42 kcal/mol
94 | ATTTTCACGTGAGGAT | 0.36 kcal/mol
95 | CAGTTCACGTGAGTGA | 0.29 kcal/mol
96 | GGGGTCACGTGTGTGG | 0.25 kcal/mol
97 | GGGAACACGTGAGTAT | 0.28 kcal/mol
98 | TTCGACACGTGGTTGT | 0.18 kcal/mol
99 | ATAGGCACGTGGTTTC | -0.13 kcal/mol
100 | ATGAGCACGTGGTGAA | -0.13 kcal/mol
101 | CTTGGCACGTGAAAGG | 0.14 kcal/mol
102 | CTGGTCACGTGGATTT | 0.21 kcal/mol
103 | AGTAACACGTGGTCGT | -0.17 kcal/mol
104 | TTTATCACGTGGTCGC | 0.03 kcal/mol
105 | TTGAGCACGTGGAATG | 0.03 kcal/mol
106 | GGGGTCACGTGAAGCA | 0.42 kcal/mol
107 | GGAGTCACGTGTGGCG | 0.17 kcal/mol
108 | GTGGGCACGTGGTCGG | -0.07 kcal/mol
109 | TCTGTCACGTGAGGAT | 0.23 kcal/mol
110 | ATGCGCACGTGTAATG | 0.04 kcal/mol
111 | GACGGCACGTGTGGCG | 0.25 kcal/mol
112 | GCGTACACGTGAGTGT | 0.1 kcal/mol
113 | TAAGACACGTGGTGAT | 0.13 kcal/mol
114 | AAGTTCACGTGCTGTG | 0.09 kcal/mol
115 | GCTTTCACGTGGTAAG | 0.25 kcal/mol
